Test results as given in the supplement of paper PMC8728848.
The other results are listed elsewhere or left out.

Experiments:
Test in all cases: glycan array binding signal (z-score within array); higher = stronger binding
Conditions in all cases: glycan notation: IUPAC condensed, linker removed
[1] = target: Gal(a1-4)Gal(b1-4)GlcNAc(b1-2)Man(a1-3)[Gal(a1-4)Gal(b1-4)GlcNAc(b1-2)Man(a1-6)]Man(b1-4)GlcNAc(b1-4)GlcNAc
Summary of the method: (§1)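 Arrays were curated from the Consortium for Functional Glycomics database, 3228 in total, and kept only where the protein sequence was available. Binding is expressed as a within-array Z-score. This score was averaged across arrays of the same protein sequence at different concentrations or buffers and across linkers, and negative values can be read as non-binding.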

[2] = target: Gal(a1-4)Gal(b1-4)GlcNAc(b1-3)Gal(b1-4)Glc
Summary of the method: as §1

Gal(a1-4)GlcNAc = target: Gal(a1-4)GlcNAc
Summary of the method: as §1

Gal(a1-6)Glc = target: Gal(a1-6)Glc
Summary of the method: as §1

Gal(b1-2)Gal = target: Gal(b1-2)Gal
Summary of the method: as §1

Gal(b1-3)Gal = target: Gal(b1-3)Gal
Summary of the method: as §1

Gal(b1-3)Gal(b1-4)GlcNAc = target: Gal(b1-3)Gal(b1-4)GlcNAc
Summary of the method: as §1

[3] = target: Gal(b1-3)Gal(b1-4)GlcNAc(b1-2)Man(a1-3)[Gal(b1-3)Gal(b1-4)GlcNAc(b1-2)Man(a1-6)]Man(b1-4)GlcNAc(b1-4)GlcNAc
Summary of the method: as §1

Gal(b1-3)GalNAc = target: Gal(b1-3)GalNAc
Summary of the method: as §1

[4] = target: Gal(b1-3)GalNAc(a1-3)[Fuc(a1-2)]Gal(b1-4)Glc
Summary of the method: as §1

[5] = target: Gal(b1-3)GalNAc(a1-3)[Fuc(a1-2)]Gal(b1-4)GlcNAc
Summary of the method: as §1

[6] = target: Gal(b1-3)GalNAc(b1-3)Gal(a1-4)Gal(b1-4)Glc
Summary of the method: as §1

[7] = target: Gal(b1-3)GalNAc(b1-4)Gal(b1-4)Glc
Summary of the method: as §1

[8] = target: Gal(b1-3)GalNAc(b1-4)[Neu5Ac(a2-3)]Gal(b1-4)Glc
Summary of the method: as §1

Gal(b1-3)GlcNAc = target: Gal(b1-3)GlcNAc
Summary of the method: as §1

[9] = target: Gal(b1-3)GlcNAc(a1-6)Gal(b1-4)GlcNAc
Summary of the method: as §1

[10] = target: Gal(b1-3)GlcNAc(b1-2)Man(a1-3)[Gal(b1-3)GlcNAc(b1-2)Man(a1-6)]Man(b1-4)GlcNAc(b1-4)GlcNAc
Summary of the method: as §1

[11] = target: Gal(b1-3)GlcNAc(b1-2)Man(a1-3)[Gal(b1-3)GlcNAc(b1-2)Man(a1-6)]Man(b1-4)GlcNAc(b1-4)[Fuc(a1-6)]GlcNAc
Summary of the method: as §1

[12] = target: Gal(b1-3)GlcNAc(b1-2)[Gal(b1-3)GlcNAc(b1-6)]Man(a1-6)[Gal(b1-3)GlcNAc(b1-2)Man(a1-3)]Man(b1-4)GlcNAc(b1-4)GlcNAc
Summary of the method: as §1

[13] = target: Gal(b1-3)GlcNAc(b1-3)Gal(b1-3)GlcNAc
Summary of the method: as §1

[14] = target: Gal(b1-3)GlcNAc(b1-3)Gal(b1-4)Glc
Summary of the method: as §1

[15] = target: Gal(b1-3)GlcNAc(b1-3)Gal(b1-4)GlcNAc
Summary of the method: as §1

[16] = target: Gal(b1-3)GlcNAc(b1-3)Gal(b1-4)GlcNAc(b1-6)[Gal(b1-3)GlcNAc(b1-3)]Gal(b1-4)Glc
Summary of the method: as §1

[17] = target: Gal(b1-3)GlcNAc(b1-3)Gal(b1-4)[Fuc(a1-3)]GlcNAc(b1-6)[Gal(b1-3)GlcNAc(b1-3)]Gal(b1-4)Glc
Summary of the method: as §1

[18] = target: Gal(b1-3)GlcNAc(b1-3)GalNAc
Summary of the method: as §1

[19] = target: Gal(b1-3)GlcNAc(b1-6)Gal(b1-4)GlcNAc
Summary of the method: as §1

[20] = target: Gal(b1-3)[Fuc(a1-4)]GlcNAc
Summary of the method: as §1

[21] = target: Gal(b1-3)[Fuc(a1-4)]GlcNAc(b1-2)Man(a1-3)[Gal(b1-3)[Fuc(a1-4)]GlcNAc(b1-2)Man(a1-6)]Man(b1-4)GlcNAc(b1-4)GlcNAc
Summary of the method: as §1

[22] = target: Gal(b1-3)[Fuc(a1-4)]GlcNAc(b1-2)Man(a1-3)[Gal(b1-3)[Fuc(a1-4)]GlcNAc(b1-2)Man(a1-6)]Man(b1-4)GlcNAc(b1-4)[Fuc(a1-6)]GlcNAc
Summary of the method: as §1

[23] = target: Gal(b1-3)[Fuc(a1-4)]GlcNAc(b1-3)Gal(b1-3)[Fuc(a1-4)]GlcNAc
Summary of the method: as §1

[24] = target: Gal(b1-3)[Fuc(a1-4)]GlcNAc(b1-3)Gal(b1-4)GlcNAc
Summary of the method: as §1

[25] = target: Gal(b1-3)[Fuc(a1-4)]GlcNAc(b1-3)Gal(b1-4)[Fuc(a1-3)]GlcNAc
Summary of the method: as §1

[26] = target: Gal(b1-3)[GlcNAc(b1-6)]GalNAc
Summary of the method: as §1

[27] = target: Gal(b1-3)[Neu5Ac(a2-6)]GalNAc
Summary of the method: as §1

[28] = target: Gal(b1-3)[Neu5Ac(a2-6)]GlcNAc(b1-6)Gal(b1-4)Glc
Summary of the method: as §1

[29] = target: Gal(b1-3)[Neu5Ac(b2-6)]GalNAc
Summary of the method: as §1

Gal(b1-4)Gal = target: Gal(b1-4)Gal
Summary of the method: as §1

[30] = target: Gal(b1-4)GalNAc(a1-3)[Fuc(a1-2)]Gal(b1-4)GlcNAc
Summary of the method: as §1

[31] = target: Gal(b1-4)GalNAc(b1-3)[Fuc(a1-2)]Gal(b1-4)GlcNAc
Summary of the method: as §1

Gal(b1-4)Glc = target: Gal(b1-4)Glc
Summary of the method: as §1

Gal(b1-4)Glc6S = target: Gal(b1-4)Glc6S
Summary of the method: as §1

Gal(b1-4)GlcNAc = target: Gal(b1-4)GlcNAc
Summary of the method: as §1

[32] = target: Gal(b1-4)GlcNAc(a1-6)Gal(b1-4)GlcNAc
Summary of the method: as §1

Gal(b1-4)GlcNAc(b1-2)Man = target: Gal(b1-4)GlcNAc(b1-2)Man
Summary of the method: as §1

[33] = target: Gal(b1-4)GlcNAc(b1-2)Man(a1-3)Man(b1-4)GlcNAc(b1-4)GlcNAc
Summary of the method: as §1

B1: PpFlo3 (Pichia pastoris) (protein)
chain: MGSSHHHHHHSSGLVPRGSHMQESGNGTTSDTAYACDIGATPFDGFNATIYQYQASDDNSIQDPVFMSTGYLQRNQLHSTTGVTNPGFNIFTAGVATTTLYGIPNVNYQNMLLELKGYFRADASGNYGLSLRNIDDSAILFFGRETAFECCNENLIPLDEAPTDYSLFTIKEGEASTNPDSYTYTQYLEAGRYYPVRTFFANIRTRAVFNFTMTLPDGSELTDFQNYIFQFGALNQ
glycan array binding signal (z-score) [1]: -0.096
glycan array binding signal (z-score) [2]: -0.251
glycan array binding signal (z-score) (Gal(a1-4)GlcNAc): 0.008
glycan array binding signal (z-score) (Gal(a1-6)Glc): -0.271
glycan array binding signal (z-score) (Gal(b1-2)Gal): -0.229
glycan array binding signal (z-score) (Gal(b1-3)Gal): -0.234
glycan array binding signal (z-score) (Gal(b1-3)Gal(b1-4)GlcNAc): -0.121
glycan array binding signal (z-score) [3]: -0.29
glycan array binding signal (z-score) (Gal(b1-3)GalNAc): -0.285
glycan array binding signal (z-score) [4]: -0.246
glycan array binding signal (z-score) [5]: -0.258
glycan array binding signal (z-score) [6]: -0.286
glycan array binding signal (z-score) [7]: 3.05
glycan array binding signal (z-score) [8]: -0.142
glycan array binding signal (z-score) (Gal(b1-3)GlcNAc): -0.201
glycan array binding signal (z-score) [9]: -0.288
glycan array binding signal (z-score) [10]: -0.277
glycan array binding signal (z-score) [11]: -0.28
glycan array binding signal (z-score) [12]: -0.273
glycan array binding signal (z-score) [13]: -0.232
glycan array binding signal (z-score) [14]: -0.116
glycan array binding signal (z-score) [15]: -0.284
glycan array binding signal (z-score) [16]: -0.255
glycan array binding signal (z-score) [17]: -0.243
glycan array binding signal (z-score) [18]: -0.296
glycan array binding signal (z-score) [19]: -0.23
glycan array binding signal (z-score) [20]: -0.173
glycan array binding signal (z-score) [21]: -0.291
glycan array binding signal (z-score) [22]: -0.296
glycan array binding signal (z-score) [23]: -0.231
glycan array binding signal (z-score) [24]: -0.256
glycan array binding signal (z-score) [25]: -0.194
glycan array binding signal (z-score) [26]: -0.083
glycan array binding signal (z-score) [27]: -0.274
glycan array binding signal (z-score) [28]: -0.226
glycan array binding signal (z-score) [29]: 0.357
glycan array binding signal (z-score) (Gal(b1-4)Gal): -0.269
glycan array binding signal (z-score) [30]: -0.188
glycan array binding signal (z-score) [31]: 0.675
glycan array binding signal (z-score) (Gal(b1-4)Glc): -0.279
glycan array binding signal (z-score) (Gal(b1-4)Glc6S): 4.38
glycan array binding signal (z-score) (Gal(b1-4)GlcNAc): -0.258
glycan array binding signal (z-score) [32]: -0.276
glycan array binding signal (z-score) (Gal(b1-4)GlcNAc(b1-2)Man): -0.275
glycan array binding signal (z-score) [33]: -0.233
